Data from patent publication US8067379B2, “Sulfur compounds as inhibitors of hepatitis C virus NS3 serine protease” (Schering Corporation, priority 2004, dated 2011).

What follows are molecules tested against Recombinant heterodimeric HCV NS3/NS4A protease (strain 1a) (Hepatitis C virus genotype 1a, UniProt P27958) (assay: Spectrophotometric assay for HCV serine protease inhibitory activity (chromogenic ester substrates)). Conditions: Table 3A; class symbols; read-out: Ki* Range.
Type: biochemical

Structure (SMILES) | Ki [nM]
CCCC[C@H](NC(=O)[C@@H]1[C@@H]2[C@H](CN1C(=O)[C@@H](NC(=O)NC1(C3OCCS3(=O)=O)CCCCC1)C(C)(C)C)C2(Cl)Cl)C(=O)C(=O)NCC (stereo partly shown) [Compound 883-de] | < 75
CCCNC(=O)C(=O)[C@H](CC1CC1)NC(=O)[C@@H]1[C@@H]2[C@H](CN1C(=O)[C@@H](NC(=O)NC1(C3OCCS3(=O)=O)CCCCC1)C(C)(C)C)C2(Cl)Cl (stereo partly shown) [Compound 883-dg] | < 75
CCCNC(=O)C(=O)[C@H](CC1CC1)NC(=O)[C@@H]1[C@@H]2[C@H](CN1C(=O)[C@@H](NC(=O)NC1(CS(=O)(=O)C3(C)CCOCC3)CCCCC1)C(C)(C)C)C2(Cl)Cl [Compound 883-di] | < 75
CCNC(=O)C(=O)[C@H](CCC1CC1)NC(=O)[C@@H]1[C@@H]2[C@H](CN1C(=O)[C@@H](NC(=O)NC1([C@H]3OCCS3(=O)=O)CCCCC1)C1(C)CCCCC1)C2(C)C [Compound 883-dj] | < 75
CCNC(=O)C(=O)[C@H](CCC1CC1)NC(=O)[C@@H]1[C@@H]2[C@H](CN1C(=O)[C@@H](NC(=O)NC1([C@@H]3OCCS3(=O)=O)CCCCC1)C1(C)CCCCC1)C2(C)C [Compound 883-dk] | < 75
CCCC[C@H](NC(=O)[C@@H]1[C@@H]2[C@H](CN1C(=O)[C@@H](NC(=O)NC1([C@H]3OCCS3(=O)=O)CCCCC1)C1(C)CCCCC1)C2(C)C)C(=O)C(=O)NCC [Compound 883-dl] | < 75
CCCC[C@H](NC(=O)[C@@H]1[C@@H]2[C@H](CN1C(=O)[C@@H](NC(=O)NC1([C@@H]3OCCS3(=O)=O)CCCCC1)C1(C)CCCCC1)C2(C)C)C(=O)C(=O)NCC [Compound 883-dm] | < 75
CCCC[C@H](NC(=O)[C@@H]1[C@@H]2[C@H](CN1C(=O)[C@@H](NC(=O)NC1([C@H]3CCCS3(=O)=O)CCCCC1)C1(C)CCCCC1)C2(C)C)C(=O)C(=O)NCC [Compound 883-dn] | < 75
CCCC[C@H](NC(=O)[C@@H]1[C@@H]2[C@H](CN1C(=O)[C@@H](NC(=O)NC1([C@@H]3CCCS3(=O)=O)CCCCC1)C1(C)CCCCC1)C2(C)C)C(=O)C(=O)NCC [Compound 883-do] | < 75
CCCC[C@H](NC(=O)[C@@H]1[C@@H]2[C@H](CN1C(=O)[C@@H](NC(=O)NC1([C@H]3CCCS3(=O)=O)CCCCC1)C(C)(C)C)C2(Cl)Cl)C(=O)C(=O)NCCC [Compound 883-dp] | < 75
CCCC[C@H](NC(=O)[C@@H]1[C@@H]2[C@H](CN1C(=O)[C@@H](NC(=O)NC1([C@@H]3CCCS3(=O)=O)CCCCC1)C(C)(C)C)C2(Cl)Cl)C(=O)C(=O)NCCC [Compound 883-dq] | < 75
CCCC[C@H](NC(=O)[C@@H]1[C@@H]2[C@H](CN1C(=O)[C@@H](NC(=O)NC1(CS(=O)(=O)C3(C)CCOCC3)CCCCC1)C(C)(C)C)C2(Cl)Cl)C(=O)C(=O)NC1CC1 [Compound 883-dt] | < 75
CCNC(=O)C(=O)[C@H](CCC1CC1)NC(=O)[C@@H]1[C@@H]2[C@H](CN1C(=O)[C@@H](NC(=O)NC1(CS(=O)(=O)C3(C)CCOCC3)CCCCC1)C(C)(C)C)C2(C)C [Compound 883-du] | < 75
CCCC[C@H](NC(=O)[C@@H]1[C@@H]2[C@H](CN1C(=O)[C@@H](NC(=O)NC1([C@H]3CCCS3(=O)=O)CCC(C)(C)CC1)C(C)(C)C)C2(C)C)C(=O)C(=O)NCC [Compound 883-dv] | < 75
CC1(C)CCC(NC(=O)N[C@H](C(=O)N2C[C@H]3[C@@H]([C@H]2C(=O)N[C@@H](CCC2CC2)C(=O)C(=O)NC2CC2)C3(C)C)C(C)(C)C)([C@H]2CCCS2(=O)=O)CC1 [Compound 883-dw] | < 75
CCC[C@H](NC(=O)[C@@H]1[C@@H]2[C@H](CN1C(=O)[C@@H](NC(=O)NC1([C@H]3CCCS3(=O)=O)CCC(C)(C)CC1)C(C)(C)C)C2(C)C)C(=O)C(=O)NC1CC1 [Compound 883-dx] | < 75
CCCC[C@H](NC(=O)[C@@H]1[C@@H]2[C@H](CN1C(=O)[C@@H](NC(=O)NC1(CS(=O)(=O)C3(C)CCOCC3)CCCCC1)C(C)(C)C)C2(Cl)Cl)C(=O)C(=O)NCC [Compound 883-dy] | < 75
CCNC(=O)C(=O)[C@H](CCC1CC1)NC(=O)[C@@H]1[C@@H]2[C@H](CN1C(=O)[C@@H](NC(=O)NC1(CS(=O)(=O)C3(C)CCOCC3)CCCCC1)C(C)(C)C)C2(Cl)Cl [Compound 883-dz] | < 75
C=CCNC(=O)C(=O)[C@H](CCC1CC1)NC(=O)[C@@H]1[C@@H]2[C@H](CN1C(=O)[C@@H](NC(=O)NC1([C@H]3CCCS3(=O)=O)CCCCC1)C(C)(C)C)C2(Cl)Cl [Compound 883-e] | < 75
CCCNC(=O)C(=O)[C@H](CCC)NC(=O)[C@@H]1[C@@H]2[C@H](CN1C(=O)[C@@H](NC(=O)NC1([C@H]3CCCS3(=O)=O)CCCCC1)C(C)(C)C)C2(Cl)Cl [Compound 883-ea] | < 75
CCCNC(=O)C(=O)[C@H](CCC)NC(=O)[C@@H]1[C@@H]2[C@H](CN1C(=O)[C@@H](NC(=O)NC1([C@@H]3CCCS3(=O)=O)CCCCC1)C(C)(C)C)C2(Cl)Cl [Compound 883-eb] | < 75
CCCNC(=O)C(=O)[C@H](CC1CC1)NC(=O)[C@@H]1[C@@H]2[C@H](CN1C(=O)[C@@H](NC(=O)NC1([C@H]3CCCS3(=O)=O)CCCCC1)C(C)(C)C)C2(Cl)Cl [Compound 883-ec] | < 75

Structure (SMILES) | Ki [nM]
CCCNC(=O)C(=O)[C@H](CC1CC1)NC(=O)[C@@H]1[C@@H]2[C@H](CN1C(=O)[C@@H](NC(=O)NC1([C@@H]3CCCS3(=O)=O)CCCCC1)C(C)(C)C)C2(Cl)Cl [Compound 883-ed] | < 75
CC(C)(C)[C@H](NC(=O)NC1(CS(=O)(=O)C(C)(C)C)CCCCC1)C(=O)N1C[C@H]2[C@@H]([C@H]1C(=O)N[C@@H](CCC1CC1)C(=O)C(=O)NCCF)C2(C)C [Compound 883-ee] | < 75
CC1([C@H](NC(=O)NC2(CS(=O)(=O)C(C)(C)C)CCCCC2)C(=O)N2C[C@H]3[C@@H]([C@H]2C(=O)N[C@@H](CCC2CC2)C(=O)C(=O)NCCF)C3(C)C)CCCCC1 [Compound 883-ef] | < 75
CC(C)(C)[C@H](NC(=O)NC1([C@H]2CCCS2(=O)=O)CCCCC1)C(=O)N1C[C@H]2[C@@H]([C@H]1C(=O)N[C@@H](CCC1CC1)C(=O)C(=O)NCCF)C2(C)C [Compound 883-eg] | < 75
CC(C)(C)[C@H](NC(=O)NC1([C@@H]2CCCS2(=O)=O)CCCCC1)C(=O)N1C[C@H]2[C@@H]([C@H]1C(=O)N[C@@H](CCC1CC1)C(=O)C(=O)NCCF)C2(C)C [Compound 883-eh] | < 75
CC1([C@H](NC(=O)NC2([C@H]3CCCS3(=O)=O)CCCCC2)C(=O)N2C[C@H]3[C@@H]([C@H]2C(=O)N[C@@H](CCC2CC2)C(=O)C(=O)NCCF)C3(C)C)CCCCC1 [Compound 883-ei] | < 75
CC1([C@H](NC(=O)NC2([C@@H]3CCCS3(=O)=O)CCCCC2)C(=O)N2C[C@H]3[C@@H]([C@H]2C(=O)N[C@@H](CCC2CC2)C(=O)C(=O)NCCF)C3(C)C)CCCCC1 [Compound 883-ej] | < 75
CCNC(=O)C(=O)[C@H](CCC1CC1)NC(=O)[C@@H]1[C@@H]2[C@H](CN1C(=O)[C@@H](NC(=O)NC1([C@H](C)S(=O)(=O)C(C)(C)C)CCCCC1)C(C)(C)C)C2(C)C [Compound 883-ek] | < 75
C[C@@H](C1(NC(=O)N[C@H](C(=O)N2C[C@H]3[C@@H]([C@H]2C(=O)N[C@@H](CCC2CC2)C(=O)C(=O)NC2CC2)C3(C)C)C(C)(C)C)CCCCC1)S(=O)(=O)C(C)(C)C [Compound 883-el] | < 75
C[C@@H](C1(NC(=O)N[C@H](C(=O)N2C[C@H]3[C@@H]([C@H]2C(=O)N[C@@H](CCC2CC2)C(=O)C(=O)NC2CC2)C3(C)C)C2(C)CCCCC2)CCCCC1)S(=O)(=O)C(C)(C)C [Compound 883-em] | < 75
CCCC[C@H](NC(=O)[C@@H]1[C@@H]2[C@H](CN1C(=O)[C@@H](NC(=O)NC1(C3OCC(C)(C)S3(=O)=O)CCCCC1)C1(C)CCCCC1)C2(C)C)C(=O)C(=O)NC1CC1 (stereo partly shown) [Compound 883-en] | < 75
CCCC[C@H](NC(=O)[C@@H]1[C@@H]2[C@H](CN1C(=O)[C@@H](NC(=O)NC1(C3OCC(C)(C)S3(=O)=O)CCCCC1)C1(C)CCCCC1)C2(C)C)C(=O)C(=O)NCC (stereo partly shown) [Compound 883-eo] | < 75
CCCC[C@H](NC(=O)[C@@H]1[C@@H]2[C@H](CN1C(=O)[C@@H](NC(=O)NC1([C@H]3OCC(C)(C)S3(=O)=O)CCCCC1)C(C)(C)C)C2(C)C)C(=O)C(=O)NCC [Compound 883-ep] | < 75
CCCC[C@H](NC(=O)[C@@H]1[C@@H]2[C@H](CN1C(=O)[C@@H](NC(=O)NC1([C@@H]3OCC(C)(C)S3(=O)=O)CCCCC1)C(C)(C)C)C2(C)C)C(=O)C(=O)NCC [Compound 883-eq] | < 75
CNC(=O)C(=O)[C@H](CC1CC1)NC(=O)[C@@H]1[C@@H]2[C@H](CN1C(=O)[C@@H](NC(=O)NC1([C@@H]3CCCS3(=O)=O)CCCCC1)C(C)(C)C)C2(C)C [Compound 883-er] | < 75
CCNC(=O)C(=O)C(CCC1CC1)NC(=O)[C@@H]1[C@@H]2[C@H](CN1C(=O)[C@@H](NC(=O)NC1([C@H]3CCCS3(=O)=O)CCCCC1)C(C)(C)C)C2(C)C (stereo partly shown) [Compound 883-es] | < 75
CNC(=O)C(=O)[C@H](CC1CC1)NC(=O)[C@@H]1[C@@H]2[C@H](CN1C(=O)[C@@H](NC(=O)NC1([C@H]3CCCS3(=O)=O)CCCCC1)C(C)(C)C)C2(C)C [Compound 883-et] | < 75
CCNC(=O)C(=O)C(CCC1CC1)NC(=O)[C@@H]1[C@@H]2[C@H](CN1C(=O)[C@@H](NC(=O)NC1([C@@H]3CCCS3(=O)=O)CCCCC1)C(C)(C)C)C2(C)C (stereo partly shown) [Compound 883-eu] | < 75
CNC(=O)C(=O)[C@@H](CC1CC1)NC(=O)[C@@H]1[C@@H]2[C@H](CN1C(=O)[C@@H](NC(=O)NC1(C3CCCS3(=O)=O)CCCCC1)C(C)(C)C)C2(C)C (stereo partly shown) [Compound 883-ev] | < 75
CNC(=O)C(=O)[C@H](CC1CC1)NC(=O)[C@@H]1[C@@H]2[C@H](CN1C(=O)[C@@H](NC(=O)NC1(C3CCCS3(=O)=O)CCCCC1)C1(C)CCCCC1)C2(C)C (stereo partly shown) [Compound 883-ew] | < 75
CNC(=O)C(=O)[C@H](CC1CC1)NC(=O)[C@@H]1[C@@H]2[C@H](CN1C(=O)[C@@H](NC(=O)NC1([C@H]3CCCS3(=O)=O)CCCCC1)C1(C)CCCCC1)C2(C)C [Compound 883-ex] | < 75
